Experimental data from the supplement of paper PMC4166925.
± gives the standard deviation of the averaged measurements. Whole data set: some 33,000 sequences, median “E-score (dimensionless, -0.5 to 0.5)” near -0.046, cut for the highest 2% near 0.36. The list shows a part of the results.

What follows are sequences tested on T1, SpTbr T-box DNA-binding domain (GST fusion) (assay: PBM E-score of 8-mer (E-score (dimensionless, -0.5 to 0.5)); Tbr is Tbrain of the sea star Patiria miniata (Pm) or the sea urchin Strongylocentrotus purpuratus (Sp); higher = stronger binding preference; most listed sequences are background and not binding sites). Details: the construct has about 5 more residues each side.
T1 sequence: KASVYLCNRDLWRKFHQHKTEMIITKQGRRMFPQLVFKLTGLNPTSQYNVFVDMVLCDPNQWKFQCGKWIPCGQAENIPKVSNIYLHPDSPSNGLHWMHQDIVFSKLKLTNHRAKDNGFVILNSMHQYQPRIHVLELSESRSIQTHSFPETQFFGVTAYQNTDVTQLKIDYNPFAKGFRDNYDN
Outline: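 Universal Agilent oligonucleotide arrays, made double-stranded by primer extension, were incubated with 200 nM GST-fused Tbr T-box DNA-binding domain in PBS (pH 7.5). The protein was expressed in BL21 E. coli at 20 °C and purified by glutathione affinity chromatography. After scanning and quantification, the Universal PBM Analysis Suite assigned an enrichment E-score to each ungapped 8-mer, averaged over duplicate arrays.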

Which “PBM E-score of 8-mer” value does the source give for TCATGCCA here?
Its value is 0.103 ± 0.0093.

Which “PBM E-score of 8-mer” value does the source give for CTCTCCAA here?
Its value is -0.105 ± 0.069.

ATGGCACA was tested. Which “PBM E-score of 8-mer” value did it give?
Its value is 0.123 ± 0.011.

CCGTTGAG was tested. Which “PBM E-score of 8-mer” value did it give?
The value was -0.204 ± 0.035.

TCTTTTAA was tested. Which “PBM E-score of 8-mer” value did it give?
The value was 0.0751 ± 0.08.

With CCGCGGGA as the sequence, how does the “PBM E-score of 8-mer” value read?
The value was -0.0784 ± 0.0089.

ACCGTAAG was tested. Which “PBM E-score of 8-mer” value did it give?
The value was -0.0128 ± 0.13.

How did the “PBM E-score of 8-mer” value turn out when AAGTCTCG was run?
Its value is 0.114 ± 0.061.

How did the “PBM E-score of 8-mer” value turn out when CAAAAGTA was run?
Its value is -0.211 ± 0.036.

ACTAACTA was tested. Which “PBM E-score of 8-mer” value did it give?
Its value is 0.0825 ± 0.013.

How did the “PBM E-score of 8-mer” value turn out when CCGGAGGA was run?
Its value is -0.234 ± 0.04.

With ATGGGCTA as the sequence, how does the “PBM E-score of 8-mer” value read?
Its value is -0.176 ± 0.062.

For AGTTGGGC, which “PBM E-score of 8-mer” value is on record?
The value was -0.0949 ± 0.04.

For GGTTTTTA, which “PBM E-score of 8-mer” value is on record?
The value was -0.261 ± 0.1.

How did the “PBM E-score of 8-mer” value turn out when GACCGAAA was run?
The value was -0.0112 ± 0.019.

With ACAATAAA as the sequence, how does the “PBM E-score of 8-mer” value read?
The value was -0.079 ± 0.077.

How did the “PBM E-score of 8-mer” value turn out when CCCGTTAA was run?
Its value is 0.199 ± 0.032.

GCTCGAGA was tested. Which “PBM E-score of 8-mer” value did it give?
The value was -0.0915 ± 0.021.

How did the “PBM E-score of 8-mer” value turn out when ACGACGCT was run?
Its value is 0.0875 ± 0.036.

Which “PBM E-score of 8-mer” value does the source give for ATAGCTAC here?
Its value is -0.238 ± 0.072.

Which “PBM E-score of 8-mer” value does the source give for AACATTGG here?
The value was 0.05132 ± 0.00013.

How did the “PBM E-score of 8-mer” value turn out when AGACATCA was run?
The value was -0.214 ± 0.003.

CAGGGTTA was tested. Which “PBM E-score of 8-mer” value did it give?
The value was -0.0854 ± 0.0056.

How did the “PBM E-score of 8-mer” value turn out when ACTGTCAC was run?
Its value is 0.35403 ± 0.00029.

How did the “PBM E-score of 8-mer” value turn out when CGACGTCC was run?
Its value is -0.196 ± 0.0025.

How did the “PBM E-score of 8-mer” value turn out when GCTTATGA was run?
The value was -0.0928 ± 0.0089.

For GTTGTACA, which “PBM E-score of 8-mer” value is on record?
The value was 0.0353 ± 0.025.

For GGCCATGA, which “PBM E-score of 8-mer” value is on record?
The value was -0.184 ± 0.0099.

With GCCGTTGA as the sequence, how does the “PBM E-score of 8-mer” value read?
The value was 0.00927 ± 0.026.

For CGGGGTCC, which “PBM E-score of 8-mer” value is on record?
Its value is -0.256 ± 0.015.

Which “PBM E-score of 8-mer” value does the source give for GCTCGATA here?
The value was -0.079 ± 0.09.

Which “PBM E-score of 8-mer” value does the source give for AGATCTCA here?
The value was 0.098 ± 0.054.

How did the “PBM E-score of 8-mer” value turn out when GAGAACGA was run?
Its value is 0.207 ± 0.0027.

For AAGGGTCG, which “PBM E-score of 8-mer” value is on record?
Its value is -0.186 ± 0.013.

For GTAGTGAC, which “PBM E-score of 8-mer” value is on record?
Its value is 0.241 ± 0.024.

For CGCATCCA, which “PBM E-score of 8-mer” value is on record?
The value was -0.213 ± 0.057.

With AGGCATTA as the sequence, how does the “PBM E-score of 8-mer” value read?
Its value is -0.0763 ± 0.073.

Which “PBM E-score of 8-mer” value does the source give for CATCGACG here?
The value was 0.0886 ± 0.011.

GGCTGTAA was tested. Which “PBM E-score of 8-mer” value did it give?
The value was 0.0224 ± 0.033.

How did the “PBM E-score of 8-mer” value turn out when TCTCTGCA was run?
The value was -0.159 ± 0.018.

Which “PBM E-score of 8-mer” value does the source give for CCACATCG here?
The value was 0.111 ± 0.055.

How did the “PBM E-score of 8-mer” value turn out when CGGGGATA was run?
Its value is -0.111 ± 0.025.

How did the “PBM E-score of 8-mer” value turn out when AAGTTGTA was run?
Its value is 0.0436 ± 0.03.

With AAACAACA as the sequence, how does the “PBM E-score of 8-mer” value read?
Its value is 0.178 ± 0.0031.

How did the “PBM E-score of 8-mer” value turn out when CGATTATC was run?
Its value is 0.0463 ± 0.1.

With ACGCCACC as the sequence, how does the “PBM E-score of 8-mer” value read?
Its value is 0.25 ± 0.0077.

With ATAATTTG as the sequence, how does the “PBM E-score of 8-mer” value read?
Its value is -0.204 ± 0.024.

Which “PBM E-score of 8-mer” value does the source give for TCTGAAGA here?
The value was -0.167 ± 0.018.

CCTCGACA was tested. Which “PBM E-score of 8-mer” value did it give?
Its value is 0.26 ± 0.054.

Which “PBM E-score of 8-mer” value does the source give for CTGTCAGA here?
The value was 0.207 ± 0.025.

CTACAGTA was tested. Which “PBM E-score of 8-mer” value did it give?
The value was -0.105 ± 0.041.

CTGCAATC was tested. Which “PBM E-score of 8-mer” value did it give?
The value was -0.0331 ± 0.099.

How did the “PBM E-score of 8-mer” value turn out when TAAGATGA was run?
The value was -0.0791 ± 0.032.

Which “PBM E-score of 8-mer” value does the source give for ATCCGTAG here?
Its value is -0.155 ± 0.032.

With GACAATAC as the sequence, how does the “PBM E-score of 8-mer” value read?
Its value is 0.0145 ± 0.01.

With ATGGAGAA as the sequence, how does the “PBM E-score of 8-mer” value read?
Its value is -0.283 ± 0.043.

With AGTCCGAC as the sequence, how does the “PBM E-score of 8-mer” value read?
The value was -0.216 ± 0.072.

With AGAACGGA as the sequence, how does the “PBM E-score of 8-mer” value read?
The value was -0.0262 ± 0.019.

Which “PBM E-score of 8-mer” value does the source give for GGAAATAC here?
Its value is -0.0888 ± 0.075.

For AGCGTTAC, which “PBM E-score of 8-mer” value is on record?
The value was 0.0783 ± 0.08.

With CCCCAGAC as the sequence, how does the “PBM E-score of 8-mer” value read?
The value was -0.0515 ± 0.0094.

For ACGCAACG, which “PBM E-score of 8-mer” value is on record?
The value was 0.0373 ± 0.028.

Which “PBM E-score of 8-mer” value does the source give for ATATAGAC here?
Its value is -0.0857 ± 0.07.

CACCGTAA was tested. Which “PBM E-score of 8-mer” value did it give?
Its value is 0.169 ± 0.084.

AGTCGTTC was tested. Which “PBM E-score of 8-mer” value did it give?
Its value is 0.0123 ± 0.035.

With AGATGGAT as the sequence, how does the “PBM E-score of 8-mer” value read?
Its value is -0.207 ± 0.014.

ACTCAAAA was tested. Which “PBM E-score of 8-mer” value did it give?
The value was 0.00976 ± 0.07.

Which “PBM E-score of 8-mer” value does the source give for CACCTCGA here?
Its value is 0.44517 ± 8.5e-05.

CCCAGGTC was tested. Which “PBM E-score of 8-mer” value did it give?
The value was -0.167 ± 0.0099.

ATTCTTAC was tested. Which “PBM E-score of 8-mer” value did it give?
Its value is -0.196 ± 0.076.

For CCTGCGCC, which “PBM E-score of 8-mer” value is on record?
The value was -0.128 ± 0.041.

For ATTAGAGG, which “PBM E-score of 8-mer” value is on record?
The value was -0.275 ± 0.043.

With AAAACTCG as the sequence, how does the “PBM E-score of 8-mer” value read?
The value was -0.0274 ± 0.059.

With TCACTGAA as the sequence, how does the “PBM E-score of 8-mer” value read?
The value was 0.0446 ± 0.0092.

How did the “PBM E-score of 8-mer” value turn out when CATCTCTC was run?
Its value is 0.115 ± 0.056.

GATGGCAC was tested. Which “PBM E-score of 8-mer” value did it give?
The value was 0.25 ± 0.0078.

AGTCTGAC was tested. Which “PBM E-score of 8-mer” value did it give?
Its value is -0.0997 ± 0.057.

With AAAACTGA as the sequence, how does the “PBM E-score of 8-mer” value read?
The value was -0.279 ± 0.033.

How did the “PBM E-score of 8-mer” value turn out when GGTGGGTA was run?
The value was -0.0909 ± 0.041.

How did the “PBM E-score of 8-mer” value turn out when CGCGACCA was run?
Its value is 0.171 ± 0.08.

Which “PBM E-score of 8-mer” value does the source give for CACGATTA here?
Its value is 0.0382 ± 0.054.

ATCCTTCG was tested. Which “PBM E-score of 8-mer” value did it give?
The value was -0.0928 ± 0.084.

For ACTCGAAT, which “PBM E-score of 8-mer” value is on record?
Its value is -0.0346 ± 0.0051.

Which “PBM E-score of 8-mer” value does the source give for CGTAGCGA here?
The value was -0.0174 ± 0.011.

For AGATTATA, which “PBM E-score of 8-mer” value is on record?
The value was -0.0789 ± 0.018.

With AAACACGA as the sequence, how does the “PBM E-score of 8-mer” value read?
Its value is 0.142 ± 0.018.
